# Experimental data as given in article PMC12040169 (PLOS Biology, 2025).
# The list shows a part of the results.
# Test system: T1, C. trachomatis L2/434/Bu expressing GFP (CTL2-GFP)
# T1 construct: L2/434/Bu GFP intracellular growth in HeLa cells
# Design: species or system HeLa; C. trachomatis total inclusion area by high-content imaging, normalised to DMSO
# Details: total inclusion area; 28.5 h, 10 µM; inhibitor
# Outline: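 Host cell viability was gauged from Hoechst-stained nuclei counts, while chlamydial growth was taken from total inclusion area and inclusion number per well. Cells were fixed and imaged by high-content microscopy once bulk GFP and resorufin fluorescence had been measured.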
row,Structure (SMILES),% of control remaining
1,CC(C)Cc1nsc(NC2CCCN(c3ccn(C)n3)C2=O)n1 (centres unmarked) [CBK304696],55.8148
2,COCCC(=O)Nc1cccc(N2CCNCC2)c1 [CBK004769T],98.3543
3,CCC(CO)NCc1ccc(OCC(N)=O)cc1 (centres unmarked) [CBK304670],63.1414
4,O=C1CCC(=O)N1CCOc1nccnc1N1CCN(CCCn2c(=O)[nH]c3ccccc32)CC1 [CBK084300],54.8691
5,NC(=O)c1ccc(-n2ncc(-c3ccsc3)n2)cc1 [CBK112858],104.211
6,Cc1ccc(CCC(=O)NNc2ccccc2)o1 [CBK260924],94.2381
7,Cc1c(Cl)cccc1S(=O)(=O)Nc1cccc(C(=O)Nc2ccc(F)cc2)c1 [CBK038983],78.8263
8,CC1=NNC(=S)NC(C)(C)C1 [CBK021597],50.9941
9,CC(=O)N1CCC2(C/C=C/C[C@H]3CN(C(=O)CCC4CCCC4)CC[C@H]3NC(=O)CNC2=O)CC1 [CBK292111],111.076
10,O=C(COc1ccc2ccccc2c1)N1CCN(S(=O)(=O)c2ccc([N+](=O)[O-])cc2)CC1 [CBK264277],90.8025
11,O=C(Cn1ncn2c(cc3ccsc32)c1=O)N1CCCCCC1 [CBK284202],95.6301
12,COc1cccc(Nc2cc(-c3ccc(N4CCOCC4)cc3)ncn2)c1OC [CBK037687],159.056
13,NC(=O)CCCCn1c2c(c3cccc(C(=O)O)c31)CCCCC2 [CBK034088],102.084
14,NC(=O)COc1ccccc1OCC(N)=O [CBK261032],101.059
15,Fc1ccc(C2(CCCN3CCN(c4ccncc4)CC3)OCCO2)cc1 [CBK038887],78.8603
16,C=CCn1c(SCC(=O)Nc2cc(Cl)ccc2O)nnc1-c1ccccc1O [CBK269102],89.3027
17,Cc1noc(C)c1NC(=O)c1cnccn1 [CBK200390],92.0022
18,CC(=O)c1ccc(-c2nccnc2NCCc2ccncc2)s1 [CBK037300],111.145
19,CC(C)n1nccc1NC(=O)CCn1c(C(F)F)cc2cccnc21 [CBK284690],53.4248
20,CSc1ncc(CNC(=O)Nc2ccc3c(c2)CCC3)n1C [CBK306996],85.1861
21,Cc1ccc(NCC2CCN(Cc3cc(=O)n4ccccc4n3)C2)nc1 (centres unmarked) [CBK306334],28.9411

row,Structure (SMILES),% of control remaining
1,CCOC(=O)CCCNC(=O)N(CC)Cc1ccccc1 [CBK155252],124.057
2,COc1ccc(CN2CCNC(=O)C2CC(=O)O)c(F)c1 (centres unmarked) [CBK270143],102.954
3,O=C(c1csc(-c2ccccc2)n1)N1CCn2nc(C3CC3)cc2C1 [CBK304676],70.1321
4,CC(=O)NC(=O)c1cccc(Br)c1 [CBK022890],65.7274
5,COc1ccc(O)c(C(=O)c2cnn(-c3ccccn3)c2)c1 [CBK295141],107.949
6,CCNC(=O)c1cnc(-c2ccc(Cl)cc2)c(-c2cccnc2)c1 [CBK037584],110.182
7,Cc1nn(C(C)CC(=O)NCC2CCN(C(C)C)CC2)c(C)c1C (centres unmarked) [CBK282703],91.6531
8,Cn1c(C2CC2)nc2c1CCN(Cc1cc(=O)n(C)c(=O)n1C)C2 [CBK304025],51.2637
9,CC1CCc2c(sc3nc(CN4CCCCC4C)[nH]c(=O)c23)C1 (centres unmarked) [CBK304975],80.7661
10,COc1cc(NC(=O)Cn2c(-c3cncs3)nc3ccccc32)cc(OC)c1OC [CBK267640],92.7721
11,CC(C(=O)N1CCCCC1)n1sc2ccccc2c1=O (centres unmarked) [CBK116322],90.1788
12,O=C(O)CCC(=O)CCC(=O)c1ccc(F)cc1 [CBK287191],93.5863
13,CN1CCC(N(C)C(=O)NCc2cccnc2)C1 (centres unmarked) [CBK156001],94.4918
14,COc1cccc(CN2CC[C@H]3[C@@H](C2)[C@H](c2ccsc2)CN3C(=O)c2ccccc2)c1 [CBK285616],105.468
15,Nc1ncnc(NCCc2ccc(S(N)(=O)=O)cc2)c1[N+](=O)[O-] [CBK267320],97.324
16,O=C(O)c1cccc(OCc2nnnn2-c2ccc(Br)cc2)c1 [CBK286744],110.479
17,CCOc1cc(NC2CCN(C(=O)C3CCCC(C)(C)C3)CC2)ncn1 (centres unmarked) [CBK305547],32.583
18,Cc1ccc(S(=O)(=O)NC(=O)N2CCCC2)cc1 [CBK001984],83.805
19,CCc1nc(C)ccc1OCC(O)CNC(C)(C)C (centres unmarked) [CBK019698],100.244
20,COc1ccc(OCC(O)Cn2c(CCCO)nc3ccccc32)cc1 (centres unmarked) [CBK305579],34.5343
21,CC1CN(Cc2nc3c(c(=O)[nH]c(=O)n3C)n2CCc2ccccc2)CC(C)O1 (centres unmarked) [CBK269876],97.6966

row,Structure (SMILES),% of control remaining
1,COc1cccc(CCOc2cncc(Cl)n2)c1 [CBK113556],32.1698
2,Cc1cc(O)nc(SCC(=O)Nc2cc([N+](=O)[O-])ccc2C)n1 [CBK267488],87.1166
3,Cc1n[nH]c(C)c1CNC(=O)C1(c2ccccc2F)CC1 [CBK283156],122.125
4,CN(CCOc1ccccc1)c1cc(C2CC(N)C2)nc(N)n1 (centres unmarked) [CBK306849],28.8976
5,CCCNC(=O)Cn1nc(C)n2c(cc3sc(C)cc32)c1=O [CBK284068],97.4353
6,O=C1CCC(=O)N1CCOc1nccnc1OC1CCN(CCCn2c(=O)[nH]c3ccccc32)CC1 [CBK084350],91.6155
7,Cc1ccc(C(=O)C(C)OC(=O)c2ccc(NC(=O)c3ccccc3)cc2)cc1 (centres unmarked) [CBK264302],122.012
8,O=C(CSc1nnc(-c2ccncc2)[nH]1)c1ccc(O)cc1O [CBK264353],110.535
9,Cc1n[nH]c(NN)c1Cl [CBK260876C],98.3174
10,CC(C)(C)NS(=O)(=O)c1ccccc1[N+](=O)[O-] [CBK260932],78.1788
11,FC(F)(F)c1cccc(CSc2cc(N3CCCC3)ncn2)c1 [CBK107184],90.9202
12,C=CCNc1nccnc1-c1ccc(O)cc1 [CBK036898],149.519
13,O=C(CC1CCCC1)N1CCCC(c2cc3cccnc3[nH]2)C1 (centres unmarked) [CBK284940],80.5215
14,CC(C)CNc1nc(SCC(N)=O)nc(N(C)C)n1 [CBK269579],95.8138
15,O=C(Nc1nnc[nH]1)c1ccccc1CCc1ccccc1 [CBK268616],112.138
16,Cc1cc(-c2nnc3n2N=C(c2ccccc2)CS3)n[nH]1 [CBK287944],132.119
17,CC1CCCC(C)N1C(=O)Cn1c(=O)n(C)c2ncccc21 (centres unmarked) [CBK282389],86.6255
18,O=c1[nH]c2ccccc2cc1CNc1ccc(F)cc1F [CBK281933],98.7144
19,OC1(c2cccnc2F)CCN(Cc2cc(F)cc(F)c2)CC1 [CBK285375],79.9356
20,COc1ncc(-c2cnc(N)c(-c3cccc(N(C)C)c3)n2)c(OC)n1 [CBK064017],133.415
21,O=C1NC2(CC3CCC2CC3C(=O)NC2CC2)Oc2ccccc21 (centres unmarked) [CBK284352],77.4831

row,Structure (SMILES),% of control remaining
1,CN(C)c1ccc(-c2nc(-c3cccc(OC(F)(F)F)c3)cnc2N)cc1 [CBK063942],123.507
2,O=C(O)c1ccc(S(=O)(=O)c2ccc3c(c2)C(=O)N(c2cc(C(=O)O)cc(C(=O)O)c2)C3=O)cc1 [CBK262824],108.148
3,O=C(Nc1ccc(O)cc1C(=O)O)c1ccc2c(c1)C(=O)N(Cc1ccccc1)C2=O [CBK266540],99.2671
4,Nc1ccc(-c2cn3ccnc3c(NCc3ccccc3)n2)cc1 [CBK066592],85.1934
5,Cc1cc(/C=C(/C#N)c2nc3ccccc3[nH]2)c(C)n1-c1ccc(N2CCOCC2)cc1 [CBK263792],95.7675
6,O=C(O)/C=C\C(=O)Nc1ccc(Cl)c(NC(=O)Cc2ccccc2)c1 [CBK263955],107.295
7,COc1ccc(-c2ccc(N3CCN(CCN(C)C)CC3)nc2)cc1OC [CBK036818],118.682
8,Cn1ncc2c1CCCN(C(=O)COc1ccc(C(C)(C)C)cc1)C2 [CBK285286],98.6154
9,Cc1ccccc1NS(=O)(=O)c1ccc(OCC(=O)N2CCN(c3cc(Cl)ccc3C)CC2)cc1 [CBK267649],113.25
10,COc1ccc(CCNS(=O)(=O)c2ccc(C3CNC(=O)C3)cc2)cc1OC (centres unmarked) [CBK268352],96.8376
11,CCCCNc1cc(N2CCN(c3cnn(C)c3)C(=O)C2)nc(N)n1 [CBK306260],37.5654
12,COc1cnc(-c2ccccc2)c(NC(C)=O)n1 [CBK145410],92.7152
13,O=C(O)CCN1CCN(Cc2ccc(Cl)cc2)CC1 [CBK287271],99.6033
14,Brc1ccc2nc3c(nc2c1)Nc1nonc1N3 [CBK262414],60.9164
15,CN(C)c1ccccc1-c1cnc(N2CCOCC2)c2nccn12 [CBK091280],109.381
16,C/C(=N\NC(=O)c1ccccc1I)c1cccc(N)c1 [CBK260935],90.2678
17,O=C(CC1CCCC1)N1CCC(c2cc(CCOc3cccc(C(F)(F)F)c3)[nH]n2)C1 (centres unmarked) [CBK286267],90.8791
18,COc1ccc(CNC(=O)CSc2nnc(-c3ccncc3)n2C)cc1 [CBK266613],116.488
19,O=C(Nc1ccc(Cl)c(S(=O)(=O)N2CCCC2)c1)c1cnccn1 [CBK295176],123.284
20,O=C(O)c1cc(NS(=O)(=O)c2ccc(N3CCCCC3)c([N+](=O)[O-])c2)cc(C(=O)O)c1 [CBK263876],78.9028
